# Reference: the supplement of paper PMC12632987
# Whole data set: some 4,500 sequences, median “median log2 fold change of GCK-ALFA target abundance (FLAG IP / Myc IP barcode read proportion)” near 0.078, cut for the lowest 2% near -0.6. The list shows a part of the results.
# B1: GBRAP_11_2773 (protein)
# chain: KAEELKKLAELAEKLAELAQKLIEEGPDNEELIKKAEETLKEAEELAKKYGSEAMKKDVKLMKELFKKALEDPENAEQYLQELENQARVLAGQALLEAEE
# B2: GBRAP_11_2882 (protein)
# chain: SKEKLKELAELAEELARTLAALLEEGVDNAELRARAEELLRRLRELTKKYADEAEQKLVEILEEEWRRALADPETAAQHWQEALAVARVLEGQYLLKLEE
# B3: GBRAP_11_2844 (protein)
# chain: KKEELEKLREEAEELAEETAALIASGNPSKEQLEELLKRVKELLERVKKHASEASKKLAEIALEDVEKAIADPATQQQHLNEALAALRVLAGQLLLEIEE
# B4: GBRAP_160_4443 (protein)
# chain: SEELEKLKEEIKEILEEALEMMKGQNLAERLAILRVAQGEIILVAEESSIMSDEDIEKIDEIMEELIATIEANPDLTDEELEALIEEALEKIFEIIEEAE
# B5: GBRAP_80_6792 (protein)
# chain: AEAELAAHLAEIAALDPEIAARVAAIVARARALGVPAETLAEFARAIAELLKVDKEEAREIVEELEEELREEEERGDTANAEATLRVHAGEALLEVEELE
# B6: GBRAP_11_2871 (protein)
# chain: KKEKLEELAKLARELAKLIDELLKEGVDNEKLRAEIEKKLEELTELVKKHADKASQKLAEIAKELWKKAKADPEKAEEYYKELLATVRVLEGQFLLDIEE
# B7: GBRAP_128_3595 (protein)
# chain: SVEEVRAWTRAQLAAMKTADAATRRAIADEIMARFLTLSLEEREALVETIEELAPELTAEDLEILADAARAARPQADPEGANLLADLEVELLNEALEKEE
# B8: GBRAP_11_2880 (protein)
# chain: KKEALKKIAELAREIAKLIDKLLKEGVDNEELLKEIKEKVEELKKLVEEEADESLKKLAEIAAELLKKALADPANREKYLKELRATVEVLEGQALLEYEE
# B9: GBRAP_184_5226 (protein)
# chain: TLENRAVEAETAEEAIKKSDEVVAEAAAAGKKLNLVVIGKNLSLEEVEKVAAYLASLKDAGKVESATLVVEDEVSEEELDKLVAIADKYGVRLVVALSEE
# B10: GBRAP_128_3487 (protein)
# chain: SLEEVKAKTEALMEKIIASTVEEAKKLTAELVALIGTLNEEEREAAEEVFVKHLPKLTEEKLEAVEETLREEMPKLDPESANVVAGLAVEAGQELLELEE
# B11: GBRAP_52_5909 (protein)
# chain: MEEELRELARRMLAAVKAGDEERAREIAREVAETLNDEELEKFIEVVEELVLEAPREELPYYERLAEIVAEELERAGKDEVLADLLLSRVAAAIYKVLQR
# B12: GBRAP_80_6778 (protein)
# chain: ALEEAKAAIKELAKLDKEFAKRAKKILKKLEEKGASEETFKAFAEAVKAIAELLKLGLKEEAKRLLEEMEEATEIEDQEERTAVFRGIAGEALLEVEEAE
# B13: GBRAP_128_3289 (protein)
# chain: ASEELLKKTKELLEKIKNSDKEEAKKYAEELAELIKNSTVEEAEAIAEIVEEKLPELSKEDLEILAEVLDKKRPEFDPEKAAIVAGIADDALLLAEELEE
# B14: GBRAP_128_3209 (protein)
# chain: SVEEVAAEVRKLLEEIKAADEEEREKLARELAELVLNSTVEEARAAAEVVEELAPELSEEDLEILARAFDEAARKTDTEVALELLDISIIAGQAILELEE
# B15: GBRAP_78_6702 (protein)
# chain: EVEEKIEEAIRKLNEAAKLLVDLGTELANDLLGKLVDAMTLLEEAEEEGADLKKLEEALKELKEALKLAKKLDVPEKPEIIKKLEEAIKLVEEAIKELKK
# B16: GBRAP_52_6121 (protein)
# chain: MKAEKAALVKEILALVKAGKLEEARAKIKEFVEKANDEELEIFAEELAAAAAEAAPADWDAVWRLAEMIAEEMEEAGKDEVLVDDLLARVAAALHARELA
# B17: GBRAP_160_4238 (protein)
# chain: SEEIEKLREEITDEAELLLDVLLESPKSQWPAYARAFAGDIVQIVEENENVSDETEEKVAELADEMVAELVAARDASPEELAALLERFVERIVKTVEEGV
# B18: GBRAP_160_4614 (protein)
# chain: SEKMEKLKKEVKELFKEAKEMIEGETPENRAAIVDVTFGQIILEAEELGVLSDEALEKIDEIGDEVVAHIRANPDLTDEEVKKLIEEAEKKILEIIKEEE
# B19: GBRAP_52_6204 (protein)
# chain: MRERMRRLARELVALVLAGDEEGARALARRIVEELDEEELRLLGEELVELAREAAPEDLDAIFRAAEILSEELERGGRPEELADGLLNRVAAALYERELR
# B20: GBRAP_52_5869 (protein)
# chain: ELEEAVKLLEEAVEAMLAGKEEEAKKLLKEIVETFSDETILKAVEKLAEEVLEKSLEEAEAFFKTAELLSDIMIEAGRDENIASYIEAIAGAALYKVEQK
# B21: GBRAP_184_5289 (protein)
# chain: MVEEVVIEAENAEEAIKKIKEAAEKAKKEGKKLRLYLFLKNVDVEGFKKIAELLKELKEEGIIEDAIVEILDERTEEETDKFVEIADKAGIRLVIALSDE
# B22: GBRAP_9_7139 (protein)
# chain: MKEVIDKLIELAEEAKEDALKVAPEDKKPIVKEAFDKFIDKLKELKKNPNTTKEEIKETVETSLKEIKETFKKNFDPETYKMLLAIILTFEVEAEEIIEE
# B23: GBRAP_128_3433 (protein)
# chain: SEEEKLAKAKELIDKALTASVEEVYELTKEFMKVFGTLSKEAREEVAAYAISQLPKLSKEQLEAVADAIREMLPELDPYAQEEAADVLVEALNEAEELEE
# B24: GBRAP_52_6108 (protein)
# chain: MREEAEKLVEELLELVKEGKLEEAKKLIREVVAKWNDEELRILGEAIAERAKEAAPEDFDAIWKLAEMVAEAMEEAGKDEVLVDDLEAEVAAALYERELR
# B25: GBRAP_80_6771 (protein)
# chain: MEEEIEKVLKEIEEIDKEVAKLVKEAIKVAKELGVSDELILEFAKAVLELTKLDKEKARKIVEEALKELKEALKEGDKEAAVGILVDAISEALLEVEELE
# B26: GBRAP_166_4944 (protein)
# chain: AKAEVLAALRAAIAAFAANVAALDEEARLDALIEIGELVRAALEAGASDEEIVAAIGEVLEAAQAAGFDPAVAAGIIANVADVSEELEDKIWERVDELKK
# B27: GBRAP_52_5946 (protein)
# chain: SAAEVAALAEAFVAAAEAGDEAAARAVLLRAARELDEAGLRAFARRLGELLKGRSVEVQEFALEVILEVEDELEALGVSPEVVADLQAEAARALYEALQA
# B28: GBRAP_128_3509 (protein)
# chain: SMEEAVARTRELMAAIAEADAEEAAALTAELVELMASVDDETAEAMADVAEELLPKLSKEKLDVVADTLEALRPTVDPYKANLLAGIAVAALNEAEELEE
# B29: GBRAP_125_3145 (protein)
# chain: KREAVLALARALAEALGFSEEEIAEIEELAEASDPEQTVVAILLAAGFEEAAEVAAKVLPKLTEEEIEELKALAEELKDAPLEEVKAAILAKLEELLAKL
# Target: GABARAP, O95166
# Assay: median log2 fold change of GCK-ALFA target abundance (FLAG IP / Myc IP barcode read proportion) (log2 ratio); each designed protein is fused to an ALFA-tag nanobody in HEK293 cells to bring the named protein to FLAG-tagged glucokinase (GCK); Myc marks an untargeted standard; higher = target protein stabilised (more abundant)
# Details: target protein: 3xFLAG-MCP-GCK-ALFA reporter; HEK293 landing pad (RPLP)
# How it was run: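 HEK293 landing-pad cells received a recombined binder library fused to the ALFA nanobody and were induced with 2 μg mL^−1 doxycycline, then transfected with a plasmid encoding a FLAG-tagged target and a Myc-tagged standard. Lysates were collected after 48 h for anti-FLAG and anti-Myc immunoprecipitation, and the circular RNA barcodes were reverse transcribed, amplified and sequenced. Target abundance for each binder is the median log2 ratio of FLAG to Myc barcode read proportions. Barcodes had to reach a proportion of at least 10^−7 in both replicates, each binder needed at least 3 barcodes per replicate, a pseudocount of 10^−6 was applied, and the two replicates were pooled.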
# Sequence of GABARAP, O95166 (O95166 whole entry, the tested form may be a part): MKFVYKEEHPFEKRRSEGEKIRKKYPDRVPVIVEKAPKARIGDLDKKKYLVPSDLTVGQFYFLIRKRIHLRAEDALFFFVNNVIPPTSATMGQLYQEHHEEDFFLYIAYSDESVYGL
row,Binder,median log2 fold change
1,B1,0.347
2,B2,0.059
3,B3,0.249
4,B4,-0.246
5,B5,-0.0698
6,B6,0.361
7,B7,-0.0227
8,B8,0.0572
9,B9,0.0236
10,B10,-0.0357
11,B11,0.188
12,B12,0.189
13,B13,0.183
14,B14,-0.185
15,B15,0.392
16,B16,0.0518
17,B17,-0.458
18,B18,-0.25
19,B19,0.0849
20,B20,0.00962
21,B21,-0.121
22,B22,0.279
23,B23,0.207
24,B24,0.195
25,B25,0.194
26,B26,-0.219
27,B27,-0.0933
28,B28,0.172
29,B29,0.0148
